B1: chr7:99579578:99579579:+_ENSMUSG00000052572_ENSMUST00000098308|mus_mus|FALSE|FALSE (ssRNA)
RNA: GGGAGUUCUACAGUCCGACGAUCAAAUCUCACAGAUUGCACACUGGUUCCGUAUAAAUUGUCAUUGUACUGGCCAGCUUCUAUAAAUUUGUGCUCUUGGAUAUCUUUCUCCAUUUGUUCUCUAGAAAUGACAAAGUGAUAGUCCAACAGAGGAUUGAGCAUCA
B2: chr17:56552419:56552420:-_ENSMUSG00000013236_ENSMUST00000086828|mus_mus|mus_mus_mus_hu_False|8_28 (ssRNA)
RNA: GGGAGUUCUACAGUCCGACGAUCAAAAAAUACACUAUUUAAAAAAAAUGAAAUGUCACGGGAUACAGUUACACUGAGAGUUUUAAAAGAAAGCUGGAUUCUGGUCCUUGCCAAAAGUCCCCAGGCUGAGUGCGGAAGAGGAGCCAACAGAGGAUUGAGCAUCA
B3: chr10:33214929:33214930:-_ENSG00000150093_ENST00000302278|hu_hu|hu_hu_hu_mus_True|28_38 (ssRNA)
RNA: GGGAGUUCUACAGUCCGACGAUCAACAAGUUCAUUGAAAAACUCUCCUCUGUCAGUAAGACUAAGCACAUUUUUGUAGCUAAAUGGGCUGGUGCAGUUCUGUUCACUUGUGCAAGGAUUUCUUAGCUUUGCUGGGGUUGUGCUCAACAGAGGAUUGAGCAUCA
B4: chr2:155494191:155494192:-_ENSMUSG00000038324_ENSMUST00000041059|mus_mus|FALSE|FALSE (ssRNA)
RNA: GGGAGUUCUACAGUCCGACGAUCCUCGUCACUUAUUUUUAGUUUCUGUCCCCGGAUAGAGAUGGUAGGCCUCAUAAGAAUUUCUACAAGAAGAUCAACACCUCCAAAUAAGUCAAAAAUAUAUGUAUUUGGGUAUGUAGCUUCCAACAGAGGAUUGAGCAUCA
B5: chr4:175158712:175158713:-_ENSG00000164117_ENST00000503293|hu_hu|FALSE|FALSE (ssRNA)
RNA: GGGAGUUCUACAGUCCGACGAUCGCGACGGGUAUUUCGAAUAAAUUCCCUUUUUGACAUUUUAUUCUUCACAUGAGGGCUAGUGAGGUCAAUGGAAAGUAGAAUCAAAGAGUAGCACAGUACAUAGACAGCAUCAGGACUAAGCAACAGAGGAUUGAGCAUCA
B6: chr4:17845017:17845018:+_ENSG00000109805_ENST00000514176|hu_mus|hu_hu_hu_mus_False|28_28 (ssRNA)
RNA: GGGAGUUCUACAGUCCGACGAUCGCUCUCUUAACUUGUAUCUUCAUUAAGGAACUCUGCAAGGUUAAGUUUACUUUUCUGUAGCGCAGCUGUUUUGGCUCGUCUGGUAGUCUCAUCCUUCAUUUCUGAUGGUGGUUCAUGAUCCAACAGAGGAUUGAGCAUCA
B7: 20490522_20494227_1144_3pUTR_ENSG00000055917_ENST00000338086|human|control|control (ssRNA)
RNA: GGGAGUUCUACAGUCCGACGAUCGGACGCUGACCUGCUCCAGCACGGAGAACCUGUUGCUGUCCAGGCUGAGCUUGUGAUGCUGCUUGCUGACUGGCUGUGUUAUUUGCCGCAGCUGCAGCUUGCUGCUGAAAUAAGUUGGCUCAACAGAGGAUUGAGCAUCA
B8: chr17:65944371:65944372:-_ENSMUSG00000024091_ENSMUST00000024897|mus_hu|FALSE|FALSE (ssRNA)
RNA: GGGAGUUCUACAGUCCGACGAUCGGGCCUCACACAGUACCGGCGAGGUGCUGUAGUCUUCACUUUGAAACACACUUUUCUAUCCGAUGGAUUUCGCAAUUUAAGAUUUGUAGUGACUACAUCUGUGAAGGGGCCUUUGAAUUUCAACAGAGGAUUGAGCAUCA
B9: chr19:8913615:8913616:-_ENSMUSG00000071658_ENSMUST00000096259|mus_hu|mus_mus_mus_hu_False|28_48 (ssRNA)
RNA: GGGAGUUCUACAGUCCGACGAUCAGGGUACCAAAACCUUCUGCCUGAAAUGGGUGCCCCACCCAGUAGGGAGUUGCAGCUGAAAGUAUCCGUAGCAGAAGCAGUGAAUGCAGAGAAGGAGGCCCCUGGGGAGGGCCAGGCCAGCAACAGAGGAUUGAGCAUCA
B10: 96192019_96192231_902_3pUTR_ENSMUSG00000033237_ENSMUST00000096250|mouse|control|control (ssRNA)
RNA: GGGAGUUCUACAGUCCGACGAUCGUCAUUAAUGCCCAGCUUUCGAGGUGGAUGAAAUAAAGAUUCCCAAAUCCAUUCUCCUGGUGUAUCUUCAUGAGCCUUGUUUCUGUCAGAAAUGAGAUCUCGCACUUCAUUGUCAUCAACCAACAGAGGAUUGAGCAUCA
B11: 134363384_134366832_6241_CDS_ENSG00000130723_ENST00000357304|human|control|control (ssRNA)
RNA: GGGAGUUCUACAGUCCGACGAUCCCGAGGCAGUGGCAUGGUCAGCUGUGGGAGCUGGGAGUCCAACAUCUGGGAGGCACCCAGGCCAGCAGCCUGGCUGAGCUGGCCCUCGUAGACCAGGGCUUGGUUCCCGCUCAUGGGCUGCAACAGAGGAUUGAGCAUCA
B12: chr9:128067362:128067363:+_ENSG00000165219_ENST00000394104|hu_hu|FALSE|FALSE (ssRNA)
RNA: GGGAGUUCUACAGUCCGACGAUCAAACUUUCCAAGGCUGCUCUUUGUUCGGGGAUCUCCCUCUUCAGAGCCAGUCAUUGCUAACUGCUGCAAAAGGCGGCCUACCUGCAUCAGAUUAAAUCGUGCUACUUCAUUAAUAGGAGCCAACAGAGGAUUGAGCAUCA
B13: 115282495_115292545_402_5pUTR_ENSG00000009307_ENST00000339438|human|control|control (ssRNA)
RNA: GGGAGUUCUACAGUCCGACGAUCUUGGAUCAAAGCUCAUCUCGCAGUGAUACUCAAAUAUUGCACUUUCAGUAGUAUUUGCUGAUUCUUCUUUUUCAGCACACGUUUCAAAGGAUGAAAGUUGCUAGUAUUAAAAAAAAGAGCCAACAGAGGAUUGAGCAUCA
B14: chr17:87832841:87832842:-_ENSMUSG00000036438_ENSMUST00000040440|perfect_dup|motif|central (ssRNA)
RNA: GGGAGUUCUACAGUCCGACGAUCACAACUUGGAAUGGAUUUGAGGCAAGUUGUGCCAUGAGCAGGUUUUCUUUAAGUGGCGGAACAAAGUUUAAAAAGCAAGUAACAAUAAAAGAAAAUGUUCCUGGUACAAUACCAGCAGUACAACAGAGGAUUGAGCAUCA

The list shows a part of the results.

This test concerns the target T1, UNK ZnF1-3 (human, UniProt Q9C0B0 31-174).
T1 sequence: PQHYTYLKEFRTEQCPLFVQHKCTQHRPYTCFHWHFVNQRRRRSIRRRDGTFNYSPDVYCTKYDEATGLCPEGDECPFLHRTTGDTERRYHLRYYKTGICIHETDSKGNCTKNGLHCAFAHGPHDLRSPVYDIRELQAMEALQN
The experiment in a line: nsRBNS (natural sequence RNA bind-n-seq); RBNS binding buffer (assumed for nsRBNS): 25 mM Tris pH 7.5, 150 mM KCl, 3 mM MgCl2, 0.01% Triton X-100, 500 ug/ml BSA, 20 U/ml SUPERase-In, 4 C; UNK is unkempt and MSI1 is Musashi-1; names of the RNAs are library labels; protein concentration not given here; high values mean tight binding.
In turn, B1 yielded a binding signal of 0.743 enrichment R.
In the case of B2 it was 2.57 enrichment R; in that of B3, 0.795 enrichment R.
The figure for B4 is 1.55 enrichment R; for B5 it is 1.78 enrichment R.
In the case of B6 it was 0.407 enrichment R; in that of B7, 0.742 enrichment R; in that of B8, 0.898 enrichment R.
Consider B9, for which the binding signal turned out to be 1.84 enrichment R.
In the case of B10 it was 0.821 enrichment R.
In the case of B11 it was 1.35 enrichment R.
The figure for B12 is 0.718 enrichment R; for B13 it is 1.32 enrichment R; for B14 it is 1.53 enrichment R.

For the origin of these results see article PMC12136788.
